The list shows a part of the results.
Tests used:
Test in all cases: glycan array binding signal (z-score within array); higher = stronger binding
Details in all cases: glycan notation: IUPAC condensed, linker removed
[1] = molecular target: Neu5Ac(a2-3)Gal(b1-3)[Fuc(a1-4)]GlcNAc
Outline: (§1)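 The binding signal is a Z-score computed within each array and averaged over linkers. Arrays of the same protein sequence at different concentrations or buffers were also averaged together. Data originate from 3228 arrays in the Consortium for Functional Glycomics database, kept only where the protein sequence was available.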

[2] = molecular target: Neu5Ac(a2-3)Gal(b1-3)[Fuc(a1-4)]GlcNAc(b1-3)Gal(b1-3)[Fuc(a1-4)]GlcNAc
Outline: as §1

[3] = molecular target: Neu5Ac(a2-3)Gal(b1-3)[Fuc(a1-4)]GlcNAc(b1-3)Gal(b1-4)[Fuc(a1-3)]GlcNAc
Outline: as §1

[4] = molecular target: Neu5Ac(a2-3)Gal(b1-3)[GlcNAc(b1-6)]GalNAc
Outline: as §1

[5] = molecular target: Neu5Ac(a2-3)Gal(b1-3)[Neu5Ac(a2-6)]GalNAc
Outline: as §1

[6] = molecular target: Neu5Ac(a2-3)Gal(b1-3)[Neu5Ac(a2-6)]GlcNAc(b1-3)[Fuc(a1-3)[Gal(b1-4)]GlcNAc(b1-6)]Gal(b1-4)Glc
Outline: as §1

[7] = molecular target: Neu5Ac(a2-3)Gal(b1-3)]Neu5Ac(a2-3)Gal(b1-4)]GlcNAc
Outline: as §1

Neu5Ac(a2-3)Gal(b1-4)Glc = molecular target: Neu5Ac(a2-3)Gal(b1-4)Glc
Outline: as §1

[8] = molecular target: Neu5Ac(a2-3)Gal(b1-4)GlcNAc
Outline: as §1

[9] = molecular target: Neu5Ac(a2-3)Gal(b1-4)GlcNAc(b1-2)Man
Outline: as §1

[10] = molecular target: Neu5Ac(a2-3)Gal(b1-4)GlcNAc(b1-2)Man(a1-3)[GlcNAc(b1-4)][Neu5Ac(a2-3)Gal(b1-4)GlcNAc(b1-2)Man(a1-6)]Man(b1-4)GlcNAc(b1-4)GlcNAc
Outline: as §1

[11] = molecular target: Neu5Ac(a2-3)Gal(b1-4)GlcNAc(b1-2)Man(a1-3)[Neu5Ac(a2-3)Gal(b1-4)GlcNAc(b1-2)Man(a1-6)]Man(b1-4)GlcNAc(b1-4)GlcNAc
Outline: as §1

[12] = molecular target: Neu5Ac(a2-3)Gal(b1-4)GlcNAc(b1-2)Man(a1-3)[Neu5Ac(a2-3)Gal(b1-4)GlcNAc(b1-2)Man(a1-6)]Man(b1-4)GlcNAc(b1-4)[Fuc(a1-6)]GlcNAc
Outline: as §1

[13] = molecular target: Neu5Ac(a2-3)Gal(b1-4)GlcNAc(b1-2)Man(a1-3)[Neu5Ac(a2-6)Gal(b1-4)GlcNAc(b1-2)Man(a1-6)]Man(b1-4)GlcNAc(b1-4)GlcNAc
Outline: as §1

[14] = molecular target: Neu5Ac(a2-3)Gal(b1-4)GlcNAc(b1-2)[Neu5Ac(a2-3)Gal(b1-4)GlcNAc(b1-4)]Man(a1-3)[GlcNAc(b1-4)][Neu5Ac(a2-3)Gal(b1-4)GlcNAc(b1-2)[Neu5Ac(a2-3)Gal(b1-4)GlcNAc(b1-6)]Man(a1-6)]Man(b1-4)GlcNAc(b1-4)GlcNAc
Outline: as §1

[15] = molecular target: Neu5Ac(a2-3)Gal(b1-4)GlcNAc(b1-2)[Neu5Ac(a2-3)Gal(b1-4)GlcNAc(b1-4)]Man(a1-3)[GlcNAc(b1-4)][Neu5Ac(a2-3)Gal(b1-4)GlcNAc(b1-4)Man(a1-6)]Man(b1-4)GlcNAc(b1-4)GlcNAc
Outline: as §1

[16] = molecular target: Neu5Ac(a2-3)Gal(b1-4)GlcNAc(b1-2)[Neu5Ac(a2-3)Gal(b1-4)GlcNAc(b1-6)]Man(a1-6)[Neu5Ac(a2-3)Gal(b1-4)GlcNAc(b1-2)Man(a1-3)]Man(b1-4)GlcNAc(b1-4)GlcNAc
Outline: as §1

[17] = molecular target: Neu5Ac(a2-3)Gal(b1-4)GlcNAc(b1-2)[Neu5Ac(a2-3)Gal(b1-4)GlcNAc(b1-6)]Man(a1-6)[Neu5Ac(a2-3)Gal(b1-4)GlcNAc(b1-2)Man(a1-3)][GlcNAc(b1-4)]Man(b1-4)GlcNAc(b1-4)GlcNAc
Outline: as §1

[18] = molecular target: Neu5Ac(a2-3)Gal(b1-4)GlcNAc(b1-3)Gal
Outline: as §1

[19] = molecular target: Neu5Ac(a2-3)Gal(b1-4)GlcNAc(b1-3)Gal(b1-3)GlcNAc
Outline: as §1

[20] = molecular target: Neu5Ac(a2-3)Gal(b1-4)GlcNAc(b1-3)Gal(b1-4)GlcNAc
Outline: as §1

[21] = molecular target: Neu5Ac(a2-3)Gal(b1-4)GlcNAc(b1-3)Gal(b1-4)GlcNAc(b1-2)Man(a1-3)[Neu5Ac(a2-3)Gal(b1-4)GlcNAc(b1-3)Gal(b1-4)GlcNAc(b1-2)Man(a1-6)]Man(b1-4)GlcNAc(b1-4)GlcNAc
Outline: as §1

[22] = molecular target: Neu5Ac(a2-3)Gal(b1-4)GlcNAc(b1-3)Gal(b1-4)GlcNAc(b1-3)Gal(b1-4)GlcNAc
Outline: as §1

[23] = molecular target: Neu5Ac(a2-3)Gal(b1-4)GlcNAc(b1-3)Gal(b1-4)GlcNAc(b1-3)Gal(b1-4)GlcNAc(b1-2)Man(a1-3)[Neu5Ac(a2-3)Gal(b1-4)GlcNAc(b1-3)Gal(b1-4)GlcNAc(b1-3)Gal(b1-4)GlcNAc(b1-2)Man(a1-6)]GalNAc
Outline: as §1

[24] = molecular target: Neu5Ac(a2-3)Gal(b1-4)GlcNAc(b1-3)Gal(b1-4)GlcNAc(b1-3)GalNAc
Outline: as §1

[25] = molecular target: Neu5Ac(a2-3)Gal(b1-4)GlcNAc(b1-3)Gal(b1-4)GlcNAc(b1-3)[Neu5Ac(a2-3)Gal(b1-4)GlcNAc(b1-3)Gal(b1-4)GlcNAc(b1-6)]GalNAc
Outline: as §1

[26] = molecular target: Neu5Ac(a2-3)Gal(b1-4)GlcNAc(b1-3)Gal(b1-4)GlcNAc(b1-6)[Gal(b1-3)]GalNAc
Outline: as §1

[27] = molecular target: Neu5Ac(a2-3)Gal(b1-4)GlcNAc(b1-3)Gal(b1-4)[Fuc(a1-3)]GlcNAc
Outline: as §1

[28] = molecular target: Neu5Ac(a2-3)Gal(b1-4)GlcNAc(b1-3)GalNAc
Outline: as §1

[29] = molecular target: Neu5Ac(a2-3)Gal(b1-4)GlcNAc(b1-3)[Neu5Ac(a2-3)Gal(b1-4)GlcNAc(b1-6)]GalNAc
Outline: as §1

[30] = molecular target: Neu5Ac(a2-3)Gal(b1-4)GlcNAc(b1-6)GalNAc
Outline: as §1

[31] = molecular target: Neu5Ac(a2-3)Gal(b1-4)GlcNAc(b1-6)[Gal(b1-3)]GalNAc
Outline: as §1

[32] = molecular target: Neu5Ac(a2-3)Gal(b1-4)GlcNAc(b1-6)[Neu5Ac(a2-3)Gal(b1-3)]GalNAc
Outline: as §1

[33] = molecular target: Neu5Ac(a2-3)Gal(b1-4)GlcNAc6S
Outline: as §1

[34] = molecular target: Neu5Ac(a2-3)Gal(b1-4)[Fuc(a1-3)]GlcNAc
Outline: as §1

[35] = molecular target: Neu5Ac(a2-3)Gal(b1-4)[Fuc(a1-3)]GlcNAc(b1-2)Man
Outline: as §1

[36] = molecular target: Neu5Ac(a2-3)Gal(b1-4)[Fuc(a1-3)]GlcNAc(b1-3)Gal
Outline: as §1

[37] = molecular target: Neu5Ac(a2-3)Gal(b1-4)[Fuc(a1-3)]GlcNAc(b1-3)Gal(b1-4)GlcNAc
Outline: as §1

[38] = molecular target: Neu5Ac(a2-3)Gal(b1-4)[Fuc(a1-3)]GlcNAc(b1-3)Gal(b1-4)[Fuc(a1-3)]GlcNAc(b1-3)Gal(b1-4)[Fuc(a1-3)]GlcNAc
Outline: as §1

[39] = molecular target: Neu5Ac(a2-3)Gal(b1-4)[Fuc(a1-3)]GlcNAc(b1-3)GalNAc
Outline: as §1

[40] = molecular target: Neu5Ac(a2-3)Gal(b1-4)[Fuc(a1-3)]GlcNAc(b1-6)[Gal(b1-3)]GalNAc
Outline: as §1

[41] = molecular target: Neu5Ac(a2-3)Gal(b1-4)[Fuc(a1-3)]GlcNAc(b1-6)[Neu5Ac(a2-3)Gal(b1-3)]GalNAc
Outline: as §1

[42] = molecular target: Neu5Ac(a2-3)Gal(b1-4)[Fuc(a1-3)]GlcNAc6S
Outline: as §1

[43] = molecular target: Neu5Ac(a2-3)Gal6S(b1-4)GlcNAc
Outline: as §1

[44] = molecular target: Neu5Ac(a2-3)Gal6S(b1-4)[Fuc(a1-3)]GlcNAc
Outline: as §1

B1: SP15308A-bot-339-19-339 (Bacteroides ovatus) (protein)
chain: ACNNEWEDEQYEQYISFKSPIPAGGEGVTDIYVRYKEDGKVTYRLPIVVSGSTTNTLDREVHIAVDKDTLETLNIERFSIHRPGLWYTALEEDKYDFPKTVHISAGSSVEQLNIDFNLQGIDMLEKWVLPLTIVDDPSYNYKSHPRKNYAKALLRVIPFNNYSGSYTSSAMKVYTYINGKPDTNARTANKRTGYVINDNTVFFYAGLISEDLDKEVREKYKINVHFNEDGTLHMEQGDPTNKMKFELIGTPTYSKTSVMDATRPYLERRYVQIMFEYDFEDFSYGGNGVDVIPIKYKVEGSMTLQRNINTQIPDEDQQIEW
[1]
  glycan array binding signal (z-score): -0.073
[2]
  glycan array binding signal (z-score): -0.283
[3]
  glycan array binding signal (z-score): 0.438
[4]
  glycan array binding signal (z-score): -0.391
[5]
  glycan array binding signal (z-score): -0.446
[6]
  glycan array binding signal (z-score): -0.697
[7]
  glycan array binding signal (z-score): -0.238
Neu5Ac(a2-3)Gal(b1-4)Glc
  glycan array binding signal (z-score): 0.997
[8]
  glycan array binding signal (z-score): -0.021
[9]
  glycan array binding signal (z-score): -0.249
[10]
  glycan array binding signal (z-score): -0.236
[11]
  glycan array binding signal (z-score): -0.552
[12]
  glycan array binding signal (z-score): -0.039
[13]
  glycan array binding signal (z-score): 0.133
[14]
  glycan array binding signal (z-score): -0.001
[15]
  glycan array binding signal (z-score): -0.388
[16]
  glycan array binding signal (z-score): 0.847
[17]
  glycan array binding signal (z-score): -0.44
[18]
  glycan array binding signal (z-score): -0.268
[19]
  glycan array binding signal (z-score): 0.117
[20]
  glycan array binding signal (z-score): -0.729
[21]
  glycan array binding signal (z-score): 0.704
[22]
  glycan array binding signal (z-score): -0.258
[23]
  glycan array binding signal (z-score): 0.516
[24]
  glycan array binding signal (z-score): -0.51
[25]
  glycan array binding signal (z-score): -0.103
[26]
  glycan array binding signal (z-score): -0.214
[27]
  glycan array binding signal (z-score): 0.411
[28]
  glycan array binding signal (z-score): 0.718
[29]
  glycan array binding signal (z-score): -0.228
[30]
  glycan array binding signal (z-score): -0.192
[31]
  glycan array binding signal (z-score): -0.225
[32]
  glycan array binding signal (z-score): -0.543
[33]
  glycan array binding signal (z-score): -0.405
[34]
  glycan array binding signal (z-score): -0.247
[35]
  glycan array binding signal (z-score): 0.057
[36]
  glycan array binding signal (z-score): -0.135
[37]
  glycan array binding signal (z-score): 0.266
[38]
  glycan array binding signal (z-score): -0.053
[39]
  glycan array binding signal (z-score): 1.76
[40]
  glycan array binding signal (z-score): 0.512
[41]
  glycan array binding signal (z-score): 0.537
[42]
  glycan array binding signal (z-score): -0.15
[43]
  glycan array binding signal (z-score): -0.364
[44]
  glycan array binding signal (z-score): -0.363

From the supplement of paper PMC8728848
